Experimental data as given in PMC6919601, “Identification of Plasmodium dipeptidyl aminopeptidase allosteric inhibitors by high throughput screening” (PLoS ONE, 2019).
The whole screen tested about 110,000 compounds, of which about 230 (0.21%) showed an effect of 50% or more. The list shows a part of the results.

biological target: DPAP1 (Plasmodium falciparum, UniProt Q8IIJ9); assay: primary screen, percent inhibition; read by cleavage of a fluorogenic dipeptide substrate; higher = more effect of the substance; set-up: species or system P. falciparum D10 trophozoite lysates; single well
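Also: 30 min substrate incubation versus DMSO and 10 µM JCP410 controls.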

DPAP1, sequence (Q8IIJ9 whole entry, looked up): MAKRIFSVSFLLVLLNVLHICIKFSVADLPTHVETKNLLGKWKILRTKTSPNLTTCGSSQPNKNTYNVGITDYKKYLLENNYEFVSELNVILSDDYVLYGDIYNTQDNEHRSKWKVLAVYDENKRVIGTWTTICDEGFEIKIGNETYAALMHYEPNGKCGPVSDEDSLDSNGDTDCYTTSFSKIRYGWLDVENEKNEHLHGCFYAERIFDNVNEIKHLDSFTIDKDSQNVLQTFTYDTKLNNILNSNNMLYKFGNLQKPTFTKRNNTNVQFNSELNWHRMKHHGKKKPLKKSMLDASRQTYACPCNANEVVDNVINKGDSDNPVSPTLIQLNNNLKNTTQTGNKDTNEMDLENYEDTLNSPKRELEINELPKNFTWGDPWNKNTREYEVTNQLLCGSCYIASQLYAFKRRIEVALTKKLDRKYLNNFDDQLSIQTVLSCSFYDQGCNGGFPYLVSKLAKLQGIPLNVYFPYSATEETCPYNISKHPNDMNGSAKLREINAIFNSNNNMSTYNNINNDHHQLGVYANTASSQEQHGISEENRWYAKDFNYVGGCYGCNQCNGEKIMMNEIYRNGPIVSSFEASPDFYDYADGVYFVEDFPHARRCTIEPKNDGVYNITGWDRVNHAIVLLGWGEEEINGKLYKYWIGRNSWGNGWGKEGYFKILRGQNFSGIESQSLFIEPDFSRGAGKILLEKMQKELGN

**Q.** How did the “% Inhibition @ 10 uM” value turn out when `C=CCn1c(SCC(=O)Nc2ccc3c(c2)OCO3)nc2scc(-c3ccc(C)o3)c2c1=O` was run?
**A.** 5.66%

**Q.** `CCOC(=O)C(NC(=O)/C(=C\c1ccccc1F)NC(=O)c1ccccc1)C(C)C` (stereo not shown) was tested. Which “% Inhibition @ 10 uM” value did it give?
**A.** -0.582%

**Q.** How did the “% Inhibition @ 10 uM” value turn out when `O=C(Nc1ccc(N2CCOCC2)cc1)c1nc[nH]n1` was run?
**A.** 1.87%

**Q.** With `CCC(C)NC(=O)C1CCN(C(=O)c2cc3sccc3n2Cc2ccc(F)cc2)CC1` (stereo not shown) as the molecule, how does the “% Inhibition @ 10 uM” value read?
**A.** -1.58%

**Q.** With `Cc1c(CCC(=O)NCc2ccccc2)c(=O)oc2c(C)c(O)ccc12` as the molecule, how does the “% Inhibition @ 10 uM” value read?
**A.** 4.13%

**Q.** How did the “% Inhibition @ 10 uM” value turn out when `CCOC(=O)c1c(NC(=O)CN2CCCCCC2)sc2c1CCC2` was run?
**A.** 1.42%

**Q.** With `Cc1[nH]nc2c1C(c1ccccc1OCc1cccc3ccccc13)C(C#N)=C(N)O2` (stereo not shown) as the molecule, how does the “% Inhibition @ 10 uM” value read?
**A.** 5.05%

**Q.** With `CCCCC[n+]1cccc(C(=O)N2c3c(O)nc(NC(=O)C(C)C)nc3NC(C)C2C)c1` (stereo not shown) as the molecule, how does the “% Inhibition @ 10 uM” value read?
**A.** -2.8%

**Q.** With `CCOC(=O)N1CCC(NC(Cc2ccccc2)c2ccccc2)CC1` (stereo not shown) as the molecule, how does the “% Inhibition @ 10 uM” value read?
**A.** -1.82%

**Q.** Which “% Inhibition @ 10 uM” value does the source give for `N#CC1=C(N)Oc2[nH]nc(-c3ccccc3)c2C12C(=O)Nc1ccccc12` (stereo not shown) here?
**A.** 2.01%

**Q.** `C=CCn1c(SCc2ccccc2)nc2c1c(=O)[nH]c(=O)n2C` was tested. Which “% Inhibition @ 10 uM” value did it give?
**A.** 3.05%

**Q.** Which “% Inhibition @ 10 uM” value does the source give for `COc1ccc(NC(=O)C2=C(C)Nc3nc(-c4cccs4)nn3C2c2ccccc2OC)cc1` (stereo not shown) here?
**A.** 10.8%

**Q.** For `CCOc1cccc2c1OC(c1cc(OC)c(OC)c(OC)c1)N1N=C(c3cccnc3)CC21` (stereo not shown), which “% Inhibition @ 10 uM” value is on record?
**A.** -1.46%

**Q.** Which “% Inhibition @ 10 uM” value does the source give for `CC(=O)N1CCN(Cc2ccccc2)CC1` here?
**A.** 1.9%

**Q.** `CC(c1ccccc1)c1nnc(NC(=O)c2ccc3c(c2)OCO3)s1` (stereo not shown) was tested. Which “% Inhibition @ 10 uM” value did it give?
**A.** 19.6%

**Q.** `Cc1ccsc1/C=C1/SC(=O)N(CC(=O)N2CCCC2)C1=O` was tested. Which “% Inhibition @ 10 uM” value did it give?
**A.** -0.478%

**Q.** Which “% Inhibition @ 10 uM” value does the source give for `Cn1c(=O)c2c(nc3n(CCO)c(-c4ccc(F)cc4)cn23)n(C)c1=O` here?
**A.** 5.05%

**Q.** How did the “% Inhibition @ 10 uM” value turn out when `Cc1ccccc1C(=O)Nc1ccc(S(=O)(=O)Nc2onc(C)c2C)cc1` was run?
**A.** -0.000375%

**Q.** How did the “% Inhibition @ 10 uM” value turn out when `O=C(Cn1nnc2ccccc2c1=O)c1ccccc1Cl` was run?
**A.** -2.05%

**Q.** `COc1ccc(N(C(C)C(=O)Nc2cccc(OC)c2)S(C)(=O)=O)cc1` (stereo not shown) was tested. Which “% Inhibition @ 10 uM” value did it give?
**A.** -0.185%

**Q.** Which “% Inhibition @ 10 uM” value does the source give for `Cn1c(=O)c2c(ncn2CC(=O)Nc2nnc(COc3ccc(Cl)cc3)s2)n(C)c1=O` here?
**A.** -4%

**Q.** Which “% Inhibition @ 10 uM” value does the source give for `CN1CCN(C(=O)c2ccc(-c3nn(C)c(=O)c4ccccc34)cc2)CC1` here?
**A.** -1.11%

**Q.** How did the “% Inhibition @ 10 uM” value turn out when `c1ccc(-c2cc(-c3cc(-c4ccccc4)[nH]n3)[nH]n2)cc1` was run?
**A.** -2.63%

**Q.** Which “% Inhibition @ 10 uM” value does the source give for `Cc1c(/C=N/NC(N)=S)c2ccccc2n1C` here?
**A.** -0.386%

**Q.** `O=C(NCc1ccc(Cl)cc1)C1CC(=O)N(c2ccc(OCC(=O)N3CCCC3)cc2)C1` (stereo not shown) was tested. Which “% Inhibition @ 10 uM” value did it give?
**A.** -4.14%

**Q.** Which “% Inhibition @ 10 uM” value does the source give for `Cn1c(C(=O)O)c(CNCCCN2CCC(Cc3ccccc3)CC2)c2ccccc21` here?
**A.** -3.21%

**Q.** With `COc1ccccc1CCNC(=O)c1nc(-c2ccc(-n3cccc3)cc2)no1` as the molecule, how does the “% Inhibition @ 10 uM” value read?
**A.** 0.895%

**Q.** Which “% Inhibition @ 10 uM” value does the source give for `Cc1cc(Br)ccc1NC(=O)c1sc2nc(-c3ccncc3)ccc2c1N` here?
**A.** -1.22%

**Q.** With `CCSc1ncc(Cl)c(C(=O)N(Cc2cccs2)C2CCS(=O)(=O)C2)n1` (stereo not shown) as the molecule, how does the “% Inhibition @ 10 uM” value read?
**A.** -2.85%

**Q.** `Cc1ccc(C2=[N+]([O-])C3(CCCCC3=O)N(O)C2(C)C)o1` (stereo not shown) was tested. Which “% Inhibition @ 10 uM” value did it give?
**A.** -5.28%

**Q.** `COc1ccc(C2N3CC4(C)CN2CC(C)(C3)C4)cc1OC` (stereo not shown) was tested. Which “% Inhibition @ 10 uM” value did it give?
**A.** 4.84%

**Q.** Which “% Inhibition @ 10 uM” value does the source give for `C=CCN1C(=O)/C(=C\c2ccc(F)cc2)C(C(=O)OCC)=C1C` here?
**A.** -0.267%

**Q.** For `CC12CN(Cc3ccccc3)CC(C)(CN(Cc3ccccc3)C1)C2=O`, which “% Inhibition @ 10 uM” value is on record?
**A.** 3.32%

**Q.** For `Cc1oc(-c2ccc(C(=O)NC3CCCc4ccccc43)cc2)nc1CS(=O)c1ccccc1` (stereo not shown), which “% Inhibition @ 10 uM” value is on record?
**A.** 1.14%

**Q.** `COc1ccc(N(CC(=O)Nc2ccc3c(c2)OCO3)S(=O)(=O)c2ccc(C)cc2)cc1OC` was tested. Which “% Inhibition @ 10 uM” value did it give?
**A.** -0.469%

**Q.** `COc1ccc2c(c1)CCc1c(C(=O)Nc3sc4c(c3C#N)CCCC4)noc1-2` was tested. Which “% Inhibition @ 10 uM” value did it give?
**A.** -10.8%

**Q.** Which “% Inhibition @ 10 uM” value does the source give for `CCOC(=O)C1=C(CN2CCN(C3CCCCC3)CC2)NC(=O)NC1c1ccccc1` (stereo not shown) here?
**A.** -1.3%

**Q.** `Cc1nn(CC(=O)NCCN(C)C)c(=O)c2nn(-c3ccccc3)c(C)c12` was tested. Which “% Inhibition @ 10 uM” value did it give?
**A.** 3.49%

**Q.** `CCn1c2ccccc2c2nnc(N3CCC(C(N)=O)CC3)nc21` was tested. Which “% Inhibition @ 10 uM” value did it give?
**A.** -3.1%

**Q.** How did the “% Inhibition @ 10 uM” value turn out when `O=C(Cn1nc(Cc2ccncc2)c2ccccc2c1=O)Nc1cccnc1` was run?
**A.** 21.1%

**Q.** For `Nc1ccc(NC2=C(N3CCCCC3)C(=O)c3ccccc3C2=O)cc1`, which “% Inhibition @ 10 uM” value is on record?
**A.** 53.5%

**Q.** Which “% Inhibition @ 10 uM” value does the source give for `COc1ccc(C2=NN(CCC(=O)NCCc3ccc(OC)c(OC)c3)C(=O)CC2)cc1` here?
**A.** 3.24%

**Q.** `Cc1cccn2c(=O)c3cc(C(=O)NCCc4ccccc4)n(C)c3nc12` was tested. Which “% Inhibition @ 10 uM” value did it give?
**A.** 4.19%

**Q.** With `CCC(=O)N1N=C2C3CCN(CC3)C2C1c1cccc(OC)c1OC` (stereo not shown) as the molecule, how does the “% Inhibition @ 10 uM” value read?
**A.** 2.57%

**Q.** `CN(C)CCC(O)(c1ccccc1)c1nc2ccccc2n1C` (stereo not shown) was tested. Which “% Inhibition @ 10 uM” value did it give?
**A.** 0.0538%

**Q.** How did the “% Inhibition @ 10 uM” value turn out when `Cc1ccc(Cn2c(=O)c3cccnc3n(CC(=O)Nc3cc(C)[nH]n3)c2=O)cc1` was run?
**A.** -3.44%

**Q.** How did the “% Inhibition @ 10 uM” value turn out when `O=S(=O)(c1cccc(C(F)(F)F)c1)N1CCC(c2nc3ccccc3s2)CC1` was run?
**A.** 2.29%

**Q.** Which “% Inhibition @ 10 uM” value does the source give for `CC1(C)CC(CCN)(c2ccccc2)CCO1` (stereo not shown) here?
**A.** -6.25%

**Q.** For `Cc1ccccc1-c1nc2cc(NC(=O)c3cccc([N+](=O)[O-])c3)ccc2o1`, which “% Inhibition @ 10 uM” value is on record?
**A.** -1.48%

**Q.** `CC(C)CN(CC(C)C)C(=O)c1ccc2c(c1)OCO2` was tested. Which “% Inhibition @ 10 uM” value did it give?
**A.** 3.53%

**Q.** Which “% Inhibition @ 10 uM” value does the source give for `CCc1ccc(S(=O)(=O)c2cnc3cc(F)c(F)cc3c2O)cc1` here?
**A.** -0.0115%

**Q.** How did the “% Inhibition @ 10 uM” value turn out when `NC(=O)C1CCCN(Cc2ccccc2Br)C1` (stereo not shown) was run?
**A.** -0.603%

**Q.** Which “% Inhibition @ 10 uM” value does the source give for `CC(C)(C)c1ccc(C23OC(=O)C(C)(C)C2OC(=O)C3(C)C)cc1` (stereo not shown) here?
**A.** -3.14%

**Q.** For `Cc1ccc(S(=O)(=O)c2cc3c(=O)n4ccccc4nc3n(Cc3ccccc3)c2=N)cc1`, which “% Inhibition @ 10 uM” value is on record?
**A.** -4.61%

**Q.** `Nc1ccc(NC(=O)c2ccccc2Br)cc1` was tested. Which “% Inhibition @ 10 uM” value did it give?
**A.** -0.0494%

**Q.** How did the “% Inhibition @ 10 uM” value turn out when `C/C=C(\C)CN1CCN(c2ccc(F)cc2)CC1` was run?
**A.** -1.5%

**Q.** With `O=C(COc1ccccc1C1CC(=O)Nc2ccc3ccccc3c21)Nc1ccccc1` (stereo not shown) as the molecule, how does the “% Inhibition @ 10 uM” value read?
**A.** -2.53%

**Q.** `CCN(CC)CCCNc1cc(C(F)(F)F)c(C#N)c2nc3ccccc3n12` was tested. Which “% Inhibition @ 10 uM” value did it give?
**A.** 2.56%

**Q.** How did the “% Inhibition @ 10 uM” value turn out when `O=C(NC1CCCCCC1)C1c2ccccc2C(=O)N1C1CCCC1` (stereo not shown) was run?
**A.** 1.16%

**Q.** With `CC(C)NC(=O)COc1ccc(Cl)cc1Cl` as the molecule, how does the “% Inhibition @ 10 uM” value read?
**A.** 5.09%

**Q.** How did the “% Inhibition @ 10 uM” value turn out when `CC1=CSC2=NC(=O)/C(=C\c3ccc(SCc4ccc(Cl)cc4)o3)C(=N)N12` was run?
**A.** -0.22%
